# Source: the supplement of paper PMC12217912
# The list shows a part of the results. Sequences were assembled here from the parent chain. Inactive controls read about 0.05.
# B1: TEV protease; numbered along this chain (parent)
# chain: MGESLFKGPRDYNPISSSICHLTNESDGHTTSLYGIGFGPFIITNKHLFRRNNGTLVVQSLHGVFKVKDTTTLQQHLVDGRDMIIIRMPKDFPPFPQKLKFREPQREERICLVTTNFQTKSMSSMVSDTSCTFPSGDGIFWKHWIQTKDGQCGSPLVSTRDGFIVGIHSASNFTNTNNYFTSVPKNFMELLTNQEAQQWVSGWRLNADSVLWGGHKVFMVKPEEPFQPVKEATQL
# Variants of: B1
# Assay: raw area under fraction-flipped curve 0-4 h after induction (AUC4h, not background-subtracted), DNA-recorder readout of cleavage of the substrate (dimensionless); higher = more cleavage of the substrate by the protease variant
# Settings: temperature: 34 °C; time window: 0-4 h after rhamnose induction
# 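Further: Bxb1 expression induced with 0.2% (w/v) L-rhamnose at OD600 near 0.5, cultures sampled hourly, flipped fraction per protease–substrate barcode pair counted by paired-end Illumina sequencing.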
variant,measurement,value
MGESLFKGPRDYNPISSSICHLTNESDGHTTSLYGIGFGPFIITNKHLFRRNNGTLVVQSLHGVFKVKDTTTLQQHLVDGRDMIIIRMPKDFPPFPQKLKFREPQREERICLVTTNFQTKSMSSMVSDTSCTAPSGDGIFWKHWIQTKDGQCGSPLVSTRDGFIVGIHSASNFTNTNNYFTSVPKNFMELLTNQEAQQWVSGWRLNADSVLWGGHKVFMVKPEEPFQPVKEATQL [F133A],area with substrate ENLDFQS,0.0609
same,area with substrate ENLEFQS,0.062
same,area with substrate ENLFFQS,0.0999
same,area with substrate ENLHFQS,0.0684
same,area with substrate ENLKFQS,0.0724
same,area with substrate ENLLFQS,0.0685
same,area with substrate ENLQFQS,0.0871
same,area with substrate ENLSFQS,0.0757
same,area with substrate ENLTFQS,0.079
MGESLFKGPRDYNPISSSICHLTNESDGHTTSLYGIGFGPFIITNKHLFRRNNGTLVVQSLHGVFKVKDTTTLQQHLVDGRDMIIIRMPKDFPPFPQKLKFREPQREERICLVTTNFQTKSMSSMVSDTSCTFPSGDGIFWAHWIQTKDGQCGSPLVSTRDGFIVGIHSASNFTNTNNYFTSVPKNFMELLTNQEAQQWVSGWRLNADSVLWGGHKVFMVKPEEPFQPVKEATQL [K142A],area with substrate ENLDFQS,0.0703
same,area with substrate ENLEFQS,0.0586
same,area with substrate ENLFFQS,0.0727
same,area with substrate ENLHFQS,0.0841
same,area with substrate ENLKFQS,0.0917
same,area with substrate ENLLFQS,0.0587
same,area with substrate ENLPFQS,0.0493
same,area with substrate ENLRFQS,0.0552
same,area with substrate ENLSFQS,0.0682
same,area with substrate ENLTFQS,0.0951
same,area with substrate ENLVFQS,0.0675
same,area with substrate ENLWFQS,0.066
MGESLFKGPRDYNPISSSICHLTNESDGHTTSLYGIGFGPFIITNKHLFRRNNGTLVVQSLHGVFKVKDTTTLQQHLVDGRDMIIIRMPKDFPPFPQKLKFREPQREERICLVTTNFQTKSMSSMVWDTSCTFPSGDGIFWKHWIQTKDGQCGSPLVSTRDGFIVGIHSASNFTNTNNYFTSVPKNFMELLTNQEAQQWVSGWRLNADSVLWGGHKVFMVKPEEPFQPVKEATQL [S127W],area with substrate ENLDFQS,0.0398
same,area with substrate ENLEFQS,0.0543
same,area with substrate ENLFFQS,0.0848
same,area with substrate ENLGFQS,0.0512
same,area with substrate ENLHFQS,0.0687
same,area with substrate ENLIFQS,0.111
same,area with substrate ENLKFQS,0.0832
same,area with substrate ENLLFQS,0.0786
same,area with substrate ENLMFQS,0.0647
same,area with substrate ENLNFQS,0.0631
same,area with substrate ENLPFQS,0.0621
same,area with substrate ENLQFQS,0.0716
same,area with substrate ENLRFQS,0.0778
same,area with substrate ENLSFQS,0.0686
MGESLFKGPRDYNPISSSICHLTNESDGHTTSLYGIGFGPFIITNKHLFRRNNGTLVVQSLHGVFKVKDTTTLQQHLVDGRDMIIIRMPKDFPPFPQKLKFREPQREERICLVTTNFQTKSMRSMVSDTSCTFPSGDGIFWKHWIQTKDGQCGSPLVSTRDGFIVGIHSASNFTNTNNYFTSVPKNFMELLTNQEAQQWVSGWRLNADSVLWGGHKVFMVKPEEPFQPVKEATQL [S123R],area with substrate ENLDFQS,0.0614
same,area with substrate ENLEFQS,0.0144
same,area with substrate ENLFFQS,0.111
same,area with substrate ENLIFQS,0.108
same,area with substrate ENLKFQS,0.0848
same,area with substrate ENLNFQS,0.0671
same,area with substrate ENLPFQS,0.0642
same,area with substrate ENLQFQS,0.0605
same,area with substrate ENLRFQS,0.0818
same,area with substrate ENLSFQS,0.0724
same,area with substrate ENLVFQS,0.0925
MGESLFKGPRDYNPISSSICHLTNESDGHTTSLYGIGFGPFIITNKHLFRRNNGTLVVQSLHGVFKVKDTTTLQQHLVDGRDMIIIRMPKDFPPFPQKLKFREPQREERICLVTTNFQTKSMSSMVSDTSCTFPSGDGIFWKHWIQTKDGQCGSPLVSTRDGFIVGIHSASNFTNTNNYFTSVPKNFMEALTNQEAQQWVSGWRLNADSVLWGGHKVFMVKPEEPFQPVKEATQL [L190A],area with substrate ENLDFQS,0.059
same,area with substrate ENLEFQS,0.0929
same,area with substrate ENLFFQS,0.0811
same,area with substrate ENLKFQS,0.0819
same,area with substrate ENLNFQS,0.0707
same,area with substrate ENLPFQS,0.0675
same,area with substrate ENLQFQS,0.0536
same,area with substrate ENLRFQS,0.0691
same,area with substrate ENLSFQS,0.0424
same,area with substrate ENLTFQS,0.0783
same,area with substrate ENLWFQS,0.0321
MGESLFKGPRDYNPISSSICHLTNESDGHTTSLYGIGFGPFIITNKHLFRRNNGTLVVQSLHGVFKVKDTTTLQQHLVDGRDMIIIRMPKDFPPFPQKLKFREPQREERICLVTTNFQDKSMSSMVSDTSCTFPSGDGIFWKHWIQTKDGQCGSPLVSTRDGFIVGIHSASNFTNTNNYFTSVPKNFMELLTNQEAQQWVSGWRLNADSVLWGGHKVFMVKPEEPFQPVKEATQL [T119D],area with substrate ENLDFQS,0.0764
same,area with substrate ENLFFQS,0.115
same,area with substrate ENLGFQS,0.0875
same,area with substrate ENLHFQS,0.0885
same,area with substrate ENLKFQS,0.0096
same,area with substrate ENLNFQS,0.0512
same,area with substrate ENLPFQS,0.0567
same,area with substrate ENLQFQS,0.0578
MGESLFKGPRDYNPISSSICHLTNESDGHTTSLYGIGFGPFIITNKHLFRRNNGTLVVQSLHGVFKVKDTTTLQQHLVDGRDMIIIRMPKDFPPFPQKLKFREPQREERICLVTTNFQTKSMSSMVSDTSCTFPSGDGIFWKHWIQTKDGQCGYPLVSTRDGFIVGIHSASNFTNTNNYFTSVPKNFMELLTNQEAQQWVSGWRLNADSVLWGGHKVFMVKPEEPFQPVKEATQL [S154Y],area with substrate ENLDFQS,0.0621
same,area with substrate ENLEFQS,0.0674
same,area with substrate ENLFFQS,0.0674
same,area with substrate ENLHFQS,0.0554
same,area with substrate ENLKFQS,0.0706
same,area with substrate ENLLFQS,0.0595
same,area with substrate ENLNFQS,0.066
same,area with substrate ENLSFQS,0.0712
MGESLFKGPRDYNPISSSICHLTNESDGHTTSLYGIGFGPFIITNKHLFRRNNGTLVVQSLHGVFKVKDTTTLQQHLVDGRDMIIIRMPKDFPPFPQKLKFREPQREERICLVTTNFQTKSMSSAVSDTSCTFPSGDGIFWKHWIQTKDGQCGSPLVSTRDGFIVGIHSASNFTNTNNYFTSVPKNFMELLTNQEAQQWVSGWRLNADSVLWGGHKVFMVKPEEPFQPVKEATQL [M125A],area with substrate ENLDFQS,0.0723
same,area with substrate ENLFFQS,0.0902
same,area with substrate ENLIFQS,0.0808
same,area with substrate ENLKFQS,0.0649
same,area with substrate ENLNFQS,0.0467
same,area with substrate ENLPFQS,0.0423
same,area with substrate ENLQFQS,0.0802
same,area with substrate ENLSFQS,0.0643
same,area with substrate ENLWFQS,0.0659
MGESLFKGPRDYNPISSSICHLTNESDGHTTSLYGIGFGPFIITNKHLFRRNNGTLVVQSLHGVFKVKDTTTLQQHLVDGRDMIIIRMPKDFPPFPQKLKFREPQREERICLVTTNFQTKSMSSPVSDTSCTFPSGDGIFWKHWIQTKDGQCGSPLVSTRDGFIVGIHSASNFTNTNNYFTSVPKNFMELLTNQEAQQWVSGWRLNADSVLWGGHKVFMVKPEEPFQPVKEATQL [M125P],area with substrate ENLDFQS,0.0278
same,area with substrate ENLKFQS,0.0796
same,area with substrate ENLNFQS,0.0542
same,area with substrate ENLSFQS,0.0517
MGESLFKGPRDYNPISSSICHLTNESDGHTTSLYGIGFGPFIITNKHLFRRNNGTLVVQSLHGVFKVKDTTTLQQHLVDGRDMIIIRMPKDFPPFPQKLKFREPQREERICLVTTNFQTKSMSSCVSDTSCTFPSGDGIFWKHWIQTKDGQCGSPLVSTRDGFIVGIHSASNFTNTNNYFTSVPKNFMELLTNQEAQQWVSGWRLNADSVLWGGHKVFMVKPEEPFQPVKEATQL [M125C],area with substrate ENLDFQS,0.0657
same,area with substrate ENLEFQS,0.0791
same,area with substrate ENLFFQS,0.0759
same,area with substrate ENLIFQS,0.0746
same,area with substrate ENLKFQS,0.106
same,area with substrate ENLMFQS,0.0738
same,area with substrate ENLPFQS,0.0699
same,area with substrate ENLQFQS,0.0685
same,area with substrate ENLRFQS,0.103
same,area with substrate ENLSFQS,0.0495
same,area with substrate ENLWFQS,0.0628
